Measured values taken from article PMC4336329 (PLoS ONE, 2015).
Among all 310,000 compounds or so, about 2,200 (0.71%) showed an effect of 50% or more. The effect is printed as a negative number. The list shows a part of the results.

target: human ether-à-go-go-related gene (hERG) potassium channel (human, UniProt Q12809); assay: primary screen, population patch clamp on CHO cells stably expressing hERG
Sequence (Q12809 whole entry, looked up): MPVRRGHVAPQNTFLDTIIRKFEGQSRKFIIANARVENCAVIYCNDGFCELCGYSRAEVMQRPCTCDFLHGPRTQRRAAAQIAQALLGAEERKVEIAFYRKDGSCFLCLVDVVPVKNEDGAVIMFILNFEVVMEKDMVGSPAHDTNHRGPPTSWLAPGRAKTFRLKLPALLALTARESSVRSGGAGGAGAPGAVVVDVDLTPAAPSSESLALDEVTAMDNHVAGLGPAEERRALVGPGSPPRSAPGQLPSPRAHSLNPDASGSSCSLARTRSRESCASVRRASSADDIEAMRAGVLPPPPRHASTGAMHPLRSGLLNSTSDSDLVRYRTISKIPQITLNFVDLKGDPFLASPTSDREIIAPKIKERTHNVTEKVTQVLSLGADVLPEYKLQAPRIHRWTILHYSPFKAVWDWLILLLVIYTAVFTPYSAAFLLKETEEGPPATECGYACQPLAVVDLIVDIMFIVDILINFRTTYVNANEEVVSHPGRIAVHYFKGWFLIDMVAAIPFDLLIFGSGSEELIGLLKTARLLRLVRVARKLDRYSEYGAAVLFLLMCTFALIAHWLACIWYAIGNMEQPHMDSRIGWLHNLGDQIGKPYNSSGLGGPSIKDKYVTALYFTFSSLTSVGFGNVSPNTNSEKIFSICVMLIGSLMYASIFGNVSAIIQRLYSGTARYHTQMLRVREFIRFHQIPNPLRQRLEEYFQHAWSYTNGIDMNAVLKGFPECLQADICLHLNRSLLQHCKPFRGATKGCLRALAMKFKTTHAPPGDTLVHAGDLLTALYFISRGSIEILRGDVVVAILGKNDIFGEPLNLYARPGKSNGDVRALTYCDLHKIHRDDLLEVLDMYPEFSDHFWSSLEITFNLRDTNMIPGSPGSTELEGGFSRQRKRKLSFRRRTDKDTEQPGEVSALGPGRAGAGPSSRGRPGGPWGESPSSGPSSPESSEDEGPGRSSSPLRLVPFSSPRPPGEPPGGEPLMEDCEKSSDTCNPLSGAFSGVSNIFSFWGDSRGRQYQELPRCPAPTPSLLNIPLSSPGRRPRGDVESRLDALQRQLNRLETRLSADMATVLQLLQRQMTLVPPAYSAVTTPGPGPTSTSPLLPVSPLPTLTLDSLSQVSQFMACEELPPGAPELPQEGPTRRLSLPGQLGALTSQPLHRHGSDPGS

| SMILES | hERG current change (%, negative = inhibition) at 1uM |
| --- | --- |
| CC1(C)CC(=O)C2=C(C1)N(Cc1cccnc1)C(=O)C2(NC(=O)C1CC1)C(F)(F)F (stereo not shown) | 3.61% |
| CC(Oc1ccc(Cl)cc1Cl)C(=O)NCCN1CCOCC1 (stereo not shown) | 5.12% |
| Cc1nn(Cc2cccc(C(=O)NC(C)c3ccc(C(C)(C)C)cc3)c2)c(C)c1[N+](=O)[O-] (stereo not shown) | -0.0182% |
| CS(=O)(=O)Nc1cccc(C2=NN(C(=O)c3cccc([N+](=O)[O-])c3)C(c3cccs3)C2)c1 (stereo not shown) | 11% |
| O=C(CCS(=O)(=O)c1cccs1)NC1CCCCCC1 | 7.3% |
| O=C1CCCc2c1cc(-c1ccccc1)n2-c1ccccc1 | -4.53% |
| Cc1ccc(S(=O)(=O)Cc2ccc(C(=O)NC3CCCCCC3)o2)cc1 | 10.7% |
| CN1C(=O)NC(c2ccc([N+](=O)[O-])cc2)C2=C1CC(C)(C)CC2=O (stereo not shown) | 11.8% |
| O=[N+]([O-])c1nn(-c2ccc3c(c2)OCCO3)n(O)c1=NCc1ccccc1Cl | 6.95% |
| CCOc1cc(/C=C2/NC(=O)N(CC(=O)OC)C2=O)ccc1O | 9.21% |
| Cc1cccc(C)c1NC(=O)CNC(=O)c1ccc2nc[nH]c2c1 | 13.2% |
| O=C(c1nn2cccnc2c1Cl)N1CCN(c2ccccc2)CC1 | 13.9% |
| N#CC1=C(N)SC(N)=C(C#N)C1CCc1ccccc1 | 17.2% |
| N#C/C(=C/c1ccc(Cl)cc1)NC(=O)c1ccccc1 | 12.2% |
| CCN(CC)C(=O)COc1ccc2oc(-c3ccco3)cc(=O)c2c1 | -0.156% |
| CC1C(=O)N2CCCc3cc(S(=O)(=O)N(C)CCC#N)cc1c32 (stereo not shown) | -3.28% |
| CCOc1ccc(NC(=O)C2CCC(CNc3c(N4CCOCC4)c(=O)c3=O)CC2)cc1 (stereo not shown) | 6.47% |
| C=CCn1c(NCc2ccccc2OC)nc2ccccc21 | 8.43% |
| COC(=O)c1cc(S(=O)(=O)NCC2CCN(Cc3cccc(Cl)c3)CC2)c[nH]1 | 5.82% |
| O=C(CSc1ccc2nnc(-c3ccccc3)n2n1)NCc1ccc2c(c1)OCO2 | -71% |
| COc1ccccc1N1CCN(C2CCCN(C(=O)CCC(=O)N(C)C)C2)CC1 (stereo not shown) | -3.24% |
| COc1ccc(-n2nc(C(=O)NCC(=O)NCCN(C)C)c3ccccc3c2=O)c(OC)c1 | 11.5% |

| SMILES | hERG current change (%, negative = inhibition) at 1uM |
| --- | --- |
| OCCN1CCN(c2nc(-c3ccccc3)nc3c2oc2ccccc23)CC1 | 3.14% |
| CCOC(=O)N1CCC(=NNc2ccnc3cc(Cl)ccc23)CC1 | -5.73% |
| Cc1ccc(C(C(=O)NC2CCCCC2)N(Cc2ccco2)C(=O)Cc2c[nH]c3ccccc23)o1 (stereo not shown) | 5.48% |
| CC(C)N(C(=S)NC1CC2CCC1C2)c1ccccc1 (stereo not shown) | 15.4% |
| COc1ccc(C(C(=O)NCC2CCCO2)N(C(=O)CNC(=O)c2cccs2)c2ccc(NC(C)=O)cc2)cc1OC (stereo not shown) | 13.8% |
| CC(C)C1NC(=S)N(C2CCCCC2)C1=O (stereo not shown) | -16.2% |
| CCCc1cc(=O)n2[nH]c(NCc3ccccc3Cl)nc2n1 | 13.9% |
| Cc1ccc(OCC(=O)NCCCNC(=O)c2ccc(C)nc2)cc1 | 19.7% |
| COc1ccc(CNCc2cc3c(cc2[N+](=O)[O-])OCO3)cc1.O=C(O)C(=O)O | -14% |
| O=Cc1c(C(=O)O)n(Cc2ccc(Cl)cc2)c2ccccc12 | 15.2% |
| CCOc1ccc(NC(=O)c2ccc(CSc3nnnn3C)cc2)cc1 | 6.92% |
| CCc1ccccc1NC(=O)CCS(=O)(=O)c1ccc(OC)cc1 | 14.3% |
| CC1CCCCN1CC(=O)NCc1ccc2c(c1)OCO2 (stereo not shown) | 1.2% |
| Cc1cc(C(=O)CSc2nnc(-c3ccc(F)cc3)o2)c(C)n1CC1CCCO1 (stereo not shown) | 14% |
| CCCC(=O)n1nc(-c2ccco2)nc1SCc1ccccc1 | 8.14% |
| Cn1c(=O)[nH]c(=O)c2c1nc(CN1CCN(c3ccccc3F)CC1)n2CC(N)=O | 4.23% |
| CC(C)(C)c1ccc(-c2nnc(SCC(=O)NC3CC3)o2)cc1 | 9.68% |
| Cc1ccc(CSCCNC(=O)/C=C/c2ccccc2Cl)cc1 | 4.67% |
| O=C1CS/C(=N/N=C/c2c[nH]c3ccccc23)N1 | 6.96% |
| Cc1cc(C)c(C#N)c(SCC(=O)c2ccccc2)n1 | -11% |
| COc1ccc(N2C(=O)CC(NNc3ncc(Cl)cc3Cl)C2=O)cc1 (stereo not shown) | -27.5% |
| O=C1NC[C@H](c2ccccc2)N(CC2CCCCC2)C1=O | 13.1% |

| SMILES | hERG current change (%, negative = inhibition) at 1uM |
| --- | --- |
| COC(=O)c1cc(NC(=O)c2nccnc2C(=O)O)cc(C(=O)OC)c1 | 13.7% |
| Cc1ccc(OCCN2C(=O)OC(C)(C)C2(C)O)cc1 (stereo not shown) | 5.2% |
| Cc1ccc2[nH]c(=O)c(CN(CCO)C(=O)NCc3ccccc3)cc2c1 | 9.56% |
| Cn1c(=O)c2c(ncn2Cc2nnc(N)s2)n(C)c1=O | 13.7% |
| COc1ccc(S(=O)(=O)N2CCN(C(=O)c3cc(C)on3)CC2)cc1 | 5.01% |
| C=CCS(=O)(=O)N1CCCC(N2CCN(c3ccccc3OC)CC2)C1 (stereo not shown) | 16.1% |
| COc1ccc(NC(=S)N(CCN2CCOCC2)Cc2cc3cc4c(cc3[nH]c2=O)OCCO4)cc1 | -0.555% |
| COc1cc(OC)cc(C(=O)NCCC(c2ccccc2)c2ccccc2)c1 | -4.61% |
| S=C(Nc1ccccc1)c1nc2ccccc2s1 | 17.1% |
| COc1ccc(/C=C/C(=O)NC(=S)NNC(=O)c2cccnc2)cc1 | 8.82% |
| Cc1ccc(S(=O)(=O)N2CCN(C(=O)COC(=O)c3c(C)noc3C)CC2)c(C)c1 | 4.02% |
| COC(C(=O)Nc1cccc([N+](=O)[O-])c1)c1ccccc1 (stereo not shown) | 5.48% |
| CCCCCc1nnc(NC(=O)c2ccc(=O)n(C)n2)s1 | 4.3% |
| COc1ccc(C)cc1NC(=O)C(C)N(c1ccc(C)cc1)S(C)(=O)=O (stereo not shown) | -0.341% |
| Cc1ccc(NC(=O)C2CCN(S(=O)(=O)c3c(C)nn(C)c3C)CC2)c(Cl)c1 | 0.0548% |
| Cc1cccc(-n2c(O)c(C=NCCCN3CCOCC3)c(=O)[nH]c2=O)c1C | 12.4% |
| Cc1c(C(=O)Oc2cccc3cccnc23)oc2ccccc12 | 12% |
| CC(=O)Nc1ccc(S(=O)(=O)NC2CC(=O)N(c3cccc(F)c3)C2)cc1 (stereo not shown) | 6.46% |
| CCC(=O)c1c[nH]c(C(=O)N2CCOCC2)c1 | 13.6% |
| COc1ccccc1N1CCN(C(=O)C2CCN(C(=O)c3ccccc3Cl)CC2)CC1 | -0.259% |
| Nc1cc(=O)[nH]c(=O)n1-c1cccc(F)c1 | 13.2% |
| Cc1c(CC(=O)O)c(=O)oc2c(C)c(OCc3ccccc3)ccc12 | 8.82% |

| SMILES | hERG current change (%, negative = inhibition) at 1uM |
| --- | --- |
| CCn1c2ccccc2c2cc(/C=N/NC(=O)c3ccccc3)ccc21 | 7.78% |
| COc1cc(C(=O)N2CCN(C(=O)c3cc(-c4ccccc4)n[nH]3)CC2)cc(OC)c1OC | -21.9% |
| c1ccc(CSCc2nc3ccccc3[nH]2)cc1 | 4.03% |
| Cc1c(-c2cccs2)[n+](=O)c2c(n1[O-])CCCCC2 | 12.3% |
| COc1cc2c(cc1NC(=O)C(C)N1CCN(S(=O)(=O)c3ccccc3[N+](=O)[O-])CC1)oc1ccccc12 (stereo not shown) | -12.4% |
| CCc1c(C)nc(N)nc1N1N=C1SC | 8.55% |
| CC(=O)NCCCNS(=O)(=O)c1ccc(C)cc1 | 10.3% |
| O=C(CN1CCCN(S(=O)(=O)c2ccc(F)cc2)CC1)Nc1ccccc1Br | -3.13% |
| Cc1ccc(NC(=S)N2CCN(c3nccc(C(F)(F)F)n3)CC2)c(C)c1 | 12.5% |
| COc1ccc(CNC(=O)c2ccc(Br)cc2)cc1 | 3.36% |
| CC(OC(=O)c1ccc([N+](=O)[O-])s1)C(=O)Nc1ncc(Cl)cc1Cl (stereo not shown) | -4.79% |
| COc1ccc(NC(=O)c2ccc3c(c2)NC(=O)CO3)cc1OC | 12.1% |
| COCCNC(=O)C(c1ccc(O)cc1)N(Cc1ccccc1)C(=O)CCC(=O)Nc1ccccn1 (stereo not shown) | -0.25% |
| NC(=O)COC(=O)/C=C/c1ccc2ccccc2n1 | 13.5% |
| CCN(CC)CCN=Cc1c(O)n(C2CCCCCC2)c(=O)[nH]c1=O | 2.8% |
| O=C(Cc1ccccc1)Oc1ccc(N2C(=O)C3CCCCC3C2=O)cc1 (stereo not shown) | -4.06% |
| CCCc1nc2cc(Cl)c([N+](=O)[O-])cc2o1 | 9.77% |
| O=C(c1nn(-c2ccccc2)c(=O)c2ccccc12)N1CCN(c2ccccn2)CC1 | -0.048% |
| CCOc1ccc(C(=O)NC2CC(=O)N(c3ccc4c(c3)OCCO4)C2)cc1 (stereo not shown) | 3.76% |
| NC(=O)c1ccsc1NC(=O)COC(=O)c1ccccc1NCc1ccco1 | 2.49% |
| CCN(CC)CCC(=O)Nc1ccc2c(c1)N(C(=O)CN(CC)CC)c1ccccc1CC2.Cl.O | 7.98% |
| Cc1ccc(Cl)c(OCC(=O)Nc2ccc3c(c2)OCCO3)c1 | 11.8% |
